Here are results for six molecules from PubChem BioAssay AID250 (DTP/NCI, 2004).

Toxic doses and inconclusive results are not listed. Not every entry of the source has a single result; some have several. The other results are left out here. There may be further records. Results that share an entry differ for a reason that is not stated; some may be repeats, others may stem from another dose, organism or construct than stated. Brackets tell where a record comes from. Letters hold for one entry only. Marks such as (2×) say how often a value occurs here.

The subject of the assay is BDF1 mice, L1210 leukemia sc, survival T/C. Kind of assay: NCI In Vivo Anticancer Drug Screen. Data for tumor model L1210 Leukemia (subcutaneous) in B6D2F1 (BDF1) mice. The note with it: endpoint: median survival time, higher = longer survival. The procedure:
The antitumor activity of compounds was measured in mice bearing transplantable tumors. Survival or tumor size were measured and the results are expressed as the measurement made in the treated group (T) divided by the measurement made in the vehicle treated control group (C). The tumor model used in this assay is L1210 Leukemia (subcutaneous) in B6D2F1 (BDF1) mice

Regarding `Nc1nc(=S)c2ncn(C3CC(O)C(CO)O3)c2[nH]1` (stereo not drawn), the T/C (dose: 75.0 mg/kg/injection, schedule: Q02DX005 (sc), vehicle: saline) is 161 % of control (2×) [sample A] and 103 % of control (2×) [sample B]. Turning to `O=c1[nH]cc(F)c(=O)[nH]1`, the T/C (dose: 14.0 mg/kg/injection, schedule: Q01DX Z (sc), vehicle: saline) is on record as 100 % of control, 105 % of control, 175 % of control; the T/C (dose: 23.0 mg/kg/injection, schedule: Q01DX Z (sc), vehicle: saline) is listed as 115 % of control, 152 % of control, 170 % of control; the T/C (dose: 64.8 mg/kg/injection, schedule: Q01DX Z (sc), vehicle: saline) is 87 % of control and 150 % of control. Turning to `CC(CN1CC(=O)NC(=O)C1)N1CC(=O)NC(=O)C1` (stereo not drawn), the T/C (dose: 500.0 mg/kg/injection, schedule: Q04DX003 (sc), vehicle: Klucel (hydroxypropylcellulose) (HPC)) is reported as 107 % of control, 111 % of control, 155 % of control. Turning to `CCCCCCCCCCCCCCCC(=O)OCC1OC(n2ccc(N)nc2=O)C(O)C1O` (stereo not drawn), the T/C (dose: 300.0 mg/kg/injection, schedule: Q01DX001 (sc), vehicle: saline) was 110 % of control and 150 % of control.

`C[C@H](CN1CC(=O)NC(=O)C1)N1CC(=O)NC(=O)C1`: the T/C (dose: 64.0 mg/kg/injection, schedule: Q01DX009 (ip), vehicle: water) is 124 % of control and 164 % of control. On to `O=NN(CCCl)C(=O)NCCCl`, for which the T/C (dose: 1.8 mg/kg/injection, schedule: Q01DX Z (sc), vehicle: saline) is 110 % of control and 176 % of control.
